These are yes or no findings as the source states them, for the method shown. Binding seen in cells or lysates may run through a third protein. Some entries that bind do so weakly or less than the wild type. For some assays here: Where a sequence is shown, tags or fusion partners need not be part of it.
Columns and labels:
Test in all cases: co-IP; HEK293 cells co-transfected with HA-GPS2 and a Flag-tagged partner; lysed 48 h after transfection; lysate with anti-Flag on protein A magnetic beads, 3 h at 4 °C; five washes with lysis buffer; blotted with anti-Flag or anti-HA
Flag-tagged C/EBPα = Flag-tagged C/EBPα (UniProt P49715)
Flag-tagged PPARα = target: T1, Flag-tagged PPARα (UniProt Q07869)
T1 sequence: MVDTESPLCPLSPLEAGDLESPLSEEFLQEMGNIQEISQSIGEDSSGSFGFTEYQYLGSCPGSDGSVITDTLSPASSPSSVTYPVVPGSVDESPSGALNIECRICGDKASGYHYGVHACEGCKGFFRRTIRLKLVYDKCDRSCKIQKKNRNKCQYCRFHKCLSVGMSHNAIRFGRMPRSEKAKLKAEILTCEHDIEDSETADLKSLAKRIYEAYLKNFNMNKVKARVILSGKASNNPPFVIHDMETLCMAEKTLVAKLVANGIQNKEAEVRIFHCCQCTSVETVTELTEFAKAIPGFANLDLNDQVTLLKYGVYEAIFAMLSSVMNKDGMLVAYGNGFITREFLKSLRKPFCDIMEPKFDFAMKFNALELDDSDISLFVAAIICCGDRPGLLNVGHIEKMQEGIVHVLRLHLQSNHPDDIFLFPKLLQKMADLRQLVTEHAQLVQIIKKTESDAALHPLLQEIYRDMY

Amino acid sequences for entries named in this document (tags omitted).
UniProt P49715: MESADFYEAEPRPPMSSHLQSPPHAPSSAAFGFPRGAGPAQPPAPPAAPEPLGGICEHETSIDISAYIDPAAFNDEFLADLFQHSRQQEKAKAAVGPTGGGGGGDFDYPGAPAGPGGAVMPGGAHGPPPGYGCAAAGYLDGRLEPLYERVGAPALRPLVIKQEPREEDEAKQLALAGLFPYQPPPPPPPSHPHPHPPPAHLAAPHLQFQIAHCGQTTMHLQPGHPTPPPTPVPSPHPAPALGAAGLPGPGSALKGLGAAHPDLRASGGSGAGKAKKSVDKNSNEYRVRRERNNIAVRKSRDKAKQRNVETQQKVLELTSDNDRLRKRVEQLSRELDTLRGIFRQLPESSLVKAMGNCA
UniProt P05412: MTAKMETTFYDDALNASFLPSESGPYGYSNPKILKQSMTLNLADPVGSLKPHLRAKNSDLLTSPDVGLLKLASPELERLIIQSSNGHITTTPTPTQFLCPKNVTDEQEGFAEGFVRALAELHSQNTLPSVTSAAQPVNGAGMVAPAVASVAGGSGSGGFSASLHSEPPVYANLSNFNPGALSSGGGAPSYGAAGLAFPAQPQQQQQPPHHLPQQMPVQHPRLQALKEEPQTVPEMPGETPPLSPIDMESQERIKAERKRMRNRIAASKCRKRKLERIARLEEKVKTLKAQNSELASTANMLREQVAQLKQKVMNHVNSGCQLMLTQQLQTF
UniProt P17676: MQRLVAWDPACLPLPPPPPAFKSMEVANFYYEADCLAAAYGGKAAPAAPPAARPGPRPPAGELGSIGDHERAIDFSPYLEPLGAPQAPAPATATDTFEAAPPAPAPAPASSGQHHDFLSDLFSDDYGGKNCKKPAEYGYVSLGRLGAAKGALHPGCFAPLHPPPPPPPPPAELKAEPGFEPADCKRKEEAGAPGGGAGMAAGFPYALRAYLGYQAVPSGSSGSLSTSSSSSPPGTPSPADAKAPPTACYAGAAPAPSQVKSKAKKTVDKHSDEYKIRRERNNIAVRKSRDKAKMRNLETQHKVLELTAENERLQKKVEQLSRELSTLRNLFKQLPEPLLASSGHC
UniProt P37231: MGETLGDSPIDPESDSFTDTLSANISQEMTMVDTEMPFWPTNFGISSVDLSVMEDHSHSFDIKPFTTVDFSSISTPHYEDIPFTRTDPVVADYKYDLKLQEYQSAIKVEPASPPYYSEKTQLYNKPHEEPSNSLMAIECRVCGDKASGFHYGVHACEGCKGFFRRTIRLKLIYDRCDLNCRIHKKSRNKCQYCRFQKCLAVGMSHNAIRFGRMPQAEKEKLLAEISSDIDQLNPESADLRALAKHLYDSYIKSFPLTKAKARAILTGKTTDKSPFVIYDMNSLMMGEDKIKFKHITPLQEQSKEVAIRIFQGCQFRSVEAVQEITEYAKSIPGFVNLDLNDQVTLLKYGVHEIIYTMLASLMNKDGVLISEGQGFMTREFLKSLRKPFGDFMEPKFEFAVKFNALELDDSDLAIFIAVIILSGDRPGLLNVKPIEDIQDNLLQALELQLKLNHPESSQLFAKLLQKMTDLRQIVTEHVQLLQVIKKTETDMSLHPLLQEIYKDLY
UniProt Q13227: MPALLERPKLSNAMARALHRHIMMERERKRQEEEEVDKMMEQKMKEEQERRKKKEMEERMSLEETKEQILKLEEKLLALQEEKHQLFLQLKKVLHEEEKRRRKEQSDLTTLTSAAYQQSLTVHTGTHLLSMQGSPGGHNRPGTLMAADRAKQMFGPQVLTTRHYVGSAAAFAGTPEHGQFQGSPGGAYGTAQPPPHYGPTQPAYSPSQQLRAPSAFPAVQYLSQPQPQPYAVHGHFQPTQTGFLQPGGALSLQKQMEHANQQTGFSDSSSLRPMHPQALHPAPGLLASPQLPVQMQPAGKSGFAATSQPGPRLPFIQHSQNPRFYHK

3XFlag-V5-tagged c-JUN = 3XFlag-V5-tagged c-JUN (UniProt P05412)
Flag-tagged C/EBPβ = Flag-tagged C/EBPβ (UniProt P17676)
Flag-tagged PPARγ = Flag-tagged PPARγ (UniProt P37231)

- binding (Flag-tagged C/EBPα): no binding
- binding (Flag-tagged PPARα): binds
- binding (3XFlag-V5-tagged c-JUN): binds
- binding (Flag-tagged C/EBPβ): no binding
- binding (Flag-tagged PPARγ): binds
Substance: HA-GPS2 (human G protein pathway suppressor 2 WT, amino acid 1-327) (from UniProt Q13227 1-327)
